Experimental data taken from PubChem BioAssay AID1963576 (National Center for Advancing Translational Sciences (NCATS), 2024).
About 60 (0.1%) of roughly 46,000 compounds were called active. Roughly 3% stayed inconclusive and do not appear here. Calls follow the shape of the dose curve; as a rule, active = well fitted inhibition curve with a large enough effect; inconclusive = small, poorly fitted or top-dose-only effect; inactive = no such curve, though single readings can be large or run the other way. The list shows a part of the results.

Assay: Primary qHTS assay for Inhibitors of ovarian cancer metastasis using an organotypic tumor microenvironment (TME) model. Also: nearly all actives have a fitted effect of over 65% in size.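 As to activity change, negative = inhibition: plate controls were DMSO wells for no effect and tomatine positive control wells for full effect.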
Details: SKOV3ip1-GFP adhesion/invasion on 3D omental model, fluorescence; series mostly up to 45.8 µM; activity change, negative = inhibition: at the top concentration
Summary of the method: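 A 3D layer of primary human omental fibroblasts, mesothelial cells, fibronectin and collagen I, grown 48 hr, received SKOV3ip1-GFP cells in serum-free medium plus compounds at 0.36-46 umol/L. After 2 hr RT and 16 hr 37 C, fixed adherent GFP cells were counted; normalized to DMSO and tomatine.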

outcome, inactive:
COC(=O)c1ccc(Oc2nc3c(c(=O)n(C)c(=O)n3C)n2Cc2ccc(Cl)c(Cl)c2)cc1
Cc1cc(NCc2ccc(Cl)cc2)n2cnnc2n1
COc1ccc(S(=O)(=O)N(CC(=O)Nc2ccc3c(c2)OCO3)c2ccc(C)cc2)cc1
COc1ccc(NC(=O)c2oc3ccccc3c2NC(=O)C23CC4CC(CC(C4)C2)C3)cc1
O=C(Cn1cc(S(=O)(=O)c2ccccc2)c(=O)c2cc3c(cc21)OCO3)Nc1ccccc1
Cn1cc(S(=O)(=O)N2CCCCC2)cc1C(=O)Nc1ccc(OC(F)(F)F)cc1
CCn1cc2nc(SCc3cccc(C)c3)n(CCc3ccccc3)c(=O)c2n1
COc1ccc(CCNC(=O)CCn2c(=O)c3ccccc3n(CC(=O)Nc3cc(Cl)ccc3C)c2=O)cc1OC
CCOC(=O)C1CCCN(C(=O)c2ccc3c(c2)N(Cc2ccccc2F)C(=O)c2ccccc2S3=O)C1 (centres undefined)
CCCN(C(=O)Cn1ncc2c([nH]c3ccccc32)c1=O)c1ccc(F)cc1
COc1cccc(-c2nc(SCC(=O)NCC3CCCO3)c(-c3ccc(Cl)cc3)[nH]2)c1 (centres undefined)
Cc1nn2c(-c3ccco3)ccnc2c1-c1ccc(Cl)cc1
CCC(=O)N1CCCc2cc(S(=O)(=O)N3CCC(C(=O)Nc4cccc(Cl)c4)CC3)ccc21
CCc1ccc(NC(=O)CC2C(=O)N(c3ccc(OC)cc3)C(=O)N2Cc2cccs2)cc1 (centres undefined)
O=C(Cn1c(=O)n(-c2ccccc2)c(=O)c2ccc(C(=O)NCc3ccc4c(c3)OCO4)cc21)Nc1ccc(F)c(Cl)c1
Cc1ccc(NC(=O)Nc2cccs2)c(C)c1
CCOc1ccc(CCNC(=O)c2ccc(-c3nc(CSc4ccccc4)c(C)o3)cc2)cc1
Cc1cccc(CC(=O)NCCc2sc3nc(-c4ccc(F)cc4)nn3c2C)c1
CN1CCN(C(=O)c2ccc3c(c2)N(Cc2ccc(Cl)cc2)C(=O)c2ccccc2S3(=O)=O)CC1
Cc1cccc(NS(=O)(=O)c2ccc3c(c2)CCN3C(=O)C2CC2)c1C
O=C(Cn1c(=O)ccc2cc(S(=O)(=O)N3CCCC3)ccc21)Nc1ccc(Cl)cc1
O=C(CCc1ccccc1)NCc1ccc2c(c1)CCN2C(=O)c1ccccc1
Nc1c(C(=O)Nc2ccc(C(F)(F)F)cc2)sc2nc(-c3cccs3)ccc12
COc1ccc(-n2c(SCC(=O)c3ccc(Cl)cc3)nc3c([nH]c4ccccc43)c2=O)cc1
CCc1ccc(NC(=O)CN2C(=O)C3CCCN3c3ccc(S(=O)(=O)N(CC)CC)cc32)cc1 (centres undefined)
COc1ccc(CCNc2ncnc3onc(-c4ccc(Cl)cc4)c23)c(OC)c1
CCc1ccc(NC(=O)Cn2c(=O)n(CCCC(=O)NCc3ccccc3Cl)c(=O)c3ccccc32)cc1

Activity change, negative = inhibition, inactive:
CC1=C(C(=O)Nc2ccccc2)C(c2ccccn2)n2nc(SCc3ccccc3Cl)nc2N1 (centres undefined) 13.2%
CN(C)CC(C)(C)CNc1nn2c(-c3ccccc3)nnc2cc1C1CCC1 -16.1%
Cc1ccccc1NC(=O)Cn1cc(S(=O)(=O)N2CCCC2)c(S(=O)(=O)N2CCCC2)c1 -15.8%
CCOc1ccc(NC(=O)c2nnn(-c3ccc(F)c(Cl)c3)c2C)cc1 7.82%
Cc1cccc(-c2noc(-c3ccc(NCc4cccnc4)c([N+](=O)[O-])c3)n2)c1 -4.89%
CN(Cc1ccco1)S(=O)(=O)c1nnc(NC(=O)c2ccccc2)s1 12.2%
O=C(Nc1ccc(F)cc1)c1ccc2c(c1)NC(=O)c1ccccc1S2 1.23%
CCc1cccc(NC(=O)Cn2ccn3nc(-c4ccc(OC)c(OC)c4)cc3c2=O)c1 2.77%
Nc1nonc1-c1nc2ccccc2n1CC(=O)Nc1cccc(Cl)c1Cl -3.43%
CCc1ccc(NS(=O)(=O)c2c(-c3ccccc3)csc2C(=O)OC)cc1 -2.19%
O=C(Nc1nnc(S(=O)(=O)N2CCCCCC2)s1)c1ccccc1 -0.0862%
COc1ccccc1N(CC(=O)Nc1cc(C)cc(C)c1)S(C)(=O)=O -5.3%
O=C(NCc1ccccc1Cl)c1ccc(NC(=O)N2CCSc3ccccc32)cc1 6.48%
Cc1ccc(OCc2cc(=O)n3c4c(sc3n2)CCCC4)cc1C -3.69%
COc1cc(OC)cc(C(=O)Nc2ccc3c(c2)n(C)c(=O)c(=O)n3C)c1 -5.23%
COc1ccc(OC)c(NC(=O)c2c(NCc3ccc(N(C)C)cc3)sc3c2CCCC3)c1 -19.6%
Cc1nc2nc(SCC(=O)NC3CCC(C)CC3)nn2c(C)c1Cc1ccccc1Cl (centres undefined) -7.9%
Cc1noc(-c2ccc(-c3noc(-c4cccc(Cl)c4)n3)cc2)n1 1.08%
Cc1ccc(S(=O)(=O)C(CNC(=O)c2ccc(C(F)(F)F)cc2)c2ccco2)cc1 (centres undefined) -6.75%
CCc1ccc2occ(CC(=O)Nc3sc4c(c3C(=O)NCCOC)CCCC4)c2c1 5.97%
O=C(NCCCc1ccccc1)c1nn(-c2ccccc2)nc1CO -0.122%
Cc1ccc(S(=O)(=O)n2nc(-c3ccco3)nc2NCc2ccc(N(C)C)cc2)cc1 -10.8%
CCc1ccc2oc(-c3ccc(C)c(NC(=O)c4ccc(C#N)cc4F)c3)nc2c1 -1.6%
CCOC(=O)c1ccc(NC(=O)CCC(=O)N2CCSc3ccccc32)cc1 -5.09%
Cc1nc2c(-c3ccccc3)c(C)nn2c(C)c1CCC(=O)NCc1ccccc1 5.53%
COC(=O)C1C2CC3c4[nH]c5cc(OC)ccc5c4CCN3CC2CC(OC(=O)c2cc(OC)c(OC)c(OC)c2)C1OC (centres undefined) 6.43%
CC(=O)c1cccc(NC(=O)CCCSc2nc(-c3ccco3)cc(C(F)(F)F)n2)c1 -14.3%
COc1ccc2c(c1)c(=O)c(S(=O)(=O)c1ccccc1)cn2CC(=O)Nc1ccc2c(c1)OCO2 8.17%
CN(C)CCNC(=O)C(=O)NCC(c1cccnc1)N1CCN(c2ccccc2)CC1 (centres undefined) 1.69%
Cc1ccc(NC(=O)c2ccc(CNS(=O)(=O)c3ccc4c(c3)C(C)(C)C(=O)N4C)cc2)cc1 -4.19%
CCOC(=O)C(C)(C)Oc1ccc(Cl)cc1 -11.9%
COc1ccc(NC(=O)CN2C(=O)C(c3ccc(C)cc3)=NC23CCCCCC3)cc1Cl 7.86%
O=C(CSc1nc2ccsc2c(=O)n1Cc1ccccc1F)NCc1ccccc1Cl -0.76%
CC(=O)N1CCc2cc(S(=O)(=O)NC(Cc3ccccc3)C(=O)Nc3ccc(C)cc3C)ccc21 (centres undefined) -7.14%
COc1ccc(N2CCN(C(=O)Cn3c(-c4cccs4)cc4ccccc43)CC2)cc1 -14.9%
Cc1ccc(C)c(Cn2c(=O)n(-c3ccc(F)cc3)c(=O)c3sc4ccccc4c32)c1 1.84%
Clc1cccc(-n2ncc3c(Nc4ccc5c(c4)OCCO5)ncnc32)c1 9.3%
O=c1cc2nc(-c3ccccc3)nc(SCCOc3ccc(Cl)cc3)n2[nH]1 1.06%
COc1ccc(C(=O)Nc2ccc3oc(-c4cc(Cl)ccc4Cl)nc3c2)cc1Br 18.9%
CCOC(=O)c1cnc2c(C)cc(C)cc2c1Nc1ccccc1OCC 3.45%
O=C(Nc1cccc(Cl)c1Cl)c1cc(S(=O)(=O)N2CCCc3ccccc32)ccc1F 14.6%
Cc1ccc(C(=O)Nc2ccc3oc(-c4cc(Br)ccc4Cl)nc3c2)cc1 -6.04%
CCOC(=O)Cn1c(-c2cccs2)cc2cc(Cl)ccc21 -4.26%
COc1ccc(CNC(=O)CSc2ncc3c(n2)-c2cc(Cl)ccc2N(C)S3(=O)=O)cc1 8.55%
COC(=O)c1c(NC(=O)/C=C/c2ccc(OC)cc2)sc2c1CCC2 42.8%
COc1ccc(CCNC(=O)c2ccc3c(c2)N(Cc2cccc(Cl)c2)C(=O)c2ccccc2S3=O)cc1OC (centres undefined) -8.45%
CN(CCCNC(=O)c1cc2c(=O)n(C)c3ccccc3c2s1)Cc1ccccc1 -0.0841%
CCOC(=O)c1cc(OC(=O)c2ccccc2OC)n(-c2ccccc2)n1 -0.146%
COc1ccc(N(C(=O)c2cccc(C)c2)S(=O)(=O)c2ccc3c(c2)n(C)c(=O)n3C)cc1 -1.51%
CCN1C(=O)c2ccccc2Sc2ccc(NC(=O)c3cccc(C)c3)cc21 -3.74%
CCc1ccc(N(CC)C(=O)c2sc3nc4n(c(=O)c3c2C)CCCC4)cc1 19.7%
COc1ccc(OCC(=O)N(Cc2ccc(C)o2)C2CCS(=O)(=O)C2)cc1 (centres undefined) -3.27%
CCC(C)NC(=O)CSCc1nc(-c2ccc(C)cc2)oc1C (centres undefined) 0.293%
O=C(c1ccccc1Br)N(Cc1ccccc1F)C1CCS(=O)(=O)C1 (centres undefined) -4.58%
Cn1nnnc1SCCCNCc1ccccc1OCc1ccc(F)cc1 1.93%
COc1cccc(-c2nc(SCc3cccc(Br)c3)n3[nH]c(=O)cc3n2)c1 27.7%
COc1ccccc1N1CCN(c2ccc(=O)n(CC(=O)Nc3cc(F)ccc3C)n2)CC1 25.6%
COc1cc2c(cc1OC)C(c1ccc(Cl)cc1)N(c1cccc(C#N)c1)C(=O)C2 (centres undefined) -3.98%
COc1ccccc1NC(=O)c1oc2ccccc2c1NC(=O)Cc1cccs1 -24.2%
CC(=O)N1CCc2c(sc3c2c(=O)n(CCc2ccccc2)c(=O)n3CC(=O)Nc2ccccc2F)C1 -0.132%
Cc1ccccc1Nc1sc(C(=O)c2ccccc2)c(N)c1S(C)(=O)=O -0.0587%
Cc1c(CC(=O)N2CCCCC2)c(=O)oc2cc(O)ccc12 7.04%
Cn1cc(S(=O)(=O)N2CCCCCC2)cc1C(=O)N1CCN(c2ccccc2F)CC1 23.7%
COc1ccc2c(Sc3ccc(C)cc3)c(C(=O)NCC(C)c3ccccc3)[nH]c2c1 (centres undefined) 4.89%
CCOC(=O)c1ccc(N2CC3=C(C2=O)C(c2ccc(OC)cc2)NC(=O)N3C)cc1 (centres undefined) 10.4%
Cc1ccc(-c2nc3cc(NC(=O)Cc4ccc(Cl)cc4)ccc3o2)cc1 -0.314%
Cc1cc(NC(=O)CSc2nc(-c3cccc(F)c3)nc3c2c(=O)n(C)c(=O)n3C)no1 12.1%
